This is an account of results in publication PMC4336329 (PLoS ONE, 2015).

Each structure is given as a SMILES string. The whole screen tested about 310,000 compounds, of which about 14,000 (4.5%) showed an effect of 50% or more. The effect is printed as a negative number. The list shows a part of the results.
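Note: peak tail current of the secondary pulse compared with the same well before compound.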

This experiment deals with human ether-à-go-go-related gene (hERG) potassium channel (human, UniProt Q12809). In words: primary screen, population patch clamp on CHO cells stably expressing hERG.
Sequence of human ether-à-go-go-related gene (hERG) potassium channel (Q12809 whole entry, looked up): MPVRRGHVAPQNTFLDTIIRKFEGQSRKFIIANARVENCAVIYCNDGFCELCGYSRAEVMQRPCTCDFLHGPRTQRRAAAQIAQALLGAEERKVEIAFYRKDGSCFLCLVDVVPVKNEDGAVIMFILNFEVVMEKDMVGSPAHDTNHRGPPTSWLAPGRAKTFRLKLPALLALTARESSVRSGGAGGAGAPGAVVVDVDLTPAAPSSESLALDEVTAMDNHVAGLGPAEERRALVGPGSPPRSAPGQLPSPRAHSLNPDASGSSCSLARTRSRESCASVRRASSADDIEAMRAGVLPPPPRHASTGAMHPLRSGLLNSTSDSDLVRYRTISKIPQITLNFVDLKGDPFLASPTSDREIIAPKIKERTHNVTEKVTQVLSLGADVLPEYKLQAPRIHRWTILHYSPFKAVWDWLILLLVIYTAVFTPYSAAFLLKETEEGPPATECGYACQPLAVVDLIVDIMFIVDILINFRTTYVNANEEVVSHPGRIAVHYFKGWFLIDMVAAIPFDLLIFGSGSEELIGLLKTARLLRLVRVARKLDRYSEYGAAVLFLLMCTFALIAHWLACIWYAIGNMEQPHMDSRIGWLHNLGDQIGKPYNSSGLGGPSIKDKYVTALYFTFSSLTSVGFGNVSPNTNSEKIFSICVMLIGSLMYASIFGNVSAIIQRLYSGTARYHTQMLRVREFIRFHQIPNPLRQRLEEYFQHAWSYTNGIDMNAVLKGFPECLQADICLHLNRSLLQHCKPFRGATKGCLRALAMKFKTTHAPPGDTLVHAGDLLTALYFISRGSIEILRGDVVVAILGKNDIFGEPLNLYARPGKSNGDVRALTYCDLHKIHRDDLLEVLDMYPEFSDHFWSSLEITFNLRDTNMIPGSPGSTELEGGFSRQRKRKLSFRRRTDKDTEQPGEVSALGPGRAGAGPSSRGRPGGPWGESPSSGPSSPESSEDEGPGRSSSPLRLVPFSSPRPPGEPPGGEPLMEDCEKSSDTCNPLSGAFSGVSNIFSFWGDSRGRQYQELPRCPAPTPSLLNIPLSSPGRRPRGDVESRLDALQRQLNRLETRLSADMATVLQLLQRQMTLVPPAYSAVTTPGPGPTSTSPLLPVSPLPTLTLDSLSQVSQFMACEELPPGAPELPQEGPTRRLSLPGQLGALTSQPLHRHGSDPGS
On to `CC1Cc2cc(/C=C3/SC(=S)NC3=O)ccc2O1` (stereo not drawn), for which the “hERG current change (%, negative = inhibition) at 10uM” value is -3.36%. For `COC(=O)C1=C(c2cc3ccccc3s2)C[C@@H]2CC[C@H]1N2C(=O)N1CCCC1` the value was -19.7%. For `CC(C)C1OC2c3cccc4cccc(c34)C2N1c1ccccc1` (stereo not drawn) the value was 19.3%. With `Cc1cc(OCC(=O)NCCO)cc(C)c1Cl` the figure was 5.16%; with `CCOC(=O)c1cccc(Nc2ncnc3ccccc23)c1.Cl`, -24.9%; with `N#CCOC(=O)c1cc(S(=O)(=O)N2CCCCC2)ccc1N1CCOCC1`, -21.4%.

Take `CC(C)(C)c1ccc(COc2ccsc2C(=O)O)cc1`: the “hERG current change (%, negative = inhibition) at 10uM” value is reported as -6.72%.

With `O=C(NCc1ccccn1)C1CCN(S(=O)(=O)c2ccccc2)CC1`, the “hERG current change (%, negative = inhibition) at 10uM” value is on record as 15.4%.

For `O=C(NNC(=O)c1cccnc1SCc1cccc([N+](=O)[O-])c1)c1ccc(F)cc1`, the “hERG current change (%, negative = inhibition) at 10uM” value is reported as 1.86%.

On to `CCOc1ccc(CCNC(=O)COC(=O)COc2ccc(Br)cc2)cc1OCC`, for which the “hERG current change (%, negative = inhibition) at 10uM” value was 16.3%. With `Cc1ccc(C)c(NC(=S)NC(=O)c2cncc(Br)c2)c1` the figure was -10.6%; with `COc1cccc(NC(=O)C2CC(=O)n3cnnc3S2)c1` (stereo not drawn), 11.9%. For `N#CC1=C(N)OC2=C(C(=O)CC(c3ccccc3)C2)C1c1ccoc1` (stereo not drawn) the value was -27.3%. With `O=C(CN(c1ccccc1)S(=O)(=O)c1ccccc1)NCCSc1ccccn1` the figure was 12.8%; with `O=C(NC(=S)Nc1ccc(N2CCOCC2)cc1)c1ccco1`, 18.9%; with `CC1CCN(S(=O)(=O)c2ccc3c(c2)oc(=O)n3C)CC1`, 22%. In the case of `CCC(C(=O)N1CCOCC1)n1nc(C)n2c(cc3cc(C)ccc32)c1=O` (stereo not drawn), the “hERG current change (%, negative = inhibition) at 10uM” value is listed as 4.7%. For `CC(C(=O)OCC(=O)Nc1ncc(Cl)cc1Cl)N1C(=O)c2ccccc2C1=O` (stereo not drawn) the value was -17.5%; for `COc1ccc(/C=N/Nc2ncc(C(F)(F)F)cc2Cl)c(OC)c1OC`, -1.15%; for `CC1(C)CC(=O)C=C(CN2C(=O)c3ccccc3C2=O)C1=O`, 20.9%. Turning to `Cn1cc(CN2CCCC(CO)C2)c(-c2ccc(Oc3ccccc3)cc2)n1` (stereo not drawn), the “hERG current change (%, negative = inhibition) at 10uM” value is -26.2%. With `Cc1ccc(/C=C/C(=O)OCC(=O)N(CC(C)C)c2c(N)n(Cc3ccccc3)c(=O)[nH]c2=O)o1` the figure was 8.59%; with `CCN(CC)S(=O)(=O)c1ccc(C(=O)Nc2cccc(C)c2)cc1`, 6.22%. Turning to `Cc1cc(-n2cccn2)ccc1CN1CCN(CC(C)C)C(CCO)C1` (stereo not drawn), the “hERG current change (%, negative = inhibition) at 10uM” value is listed as -45.5%. For `CCN(CC)CCCNc1oc(-c2ccc(OC)c(OC)c2)nc1C#N` the value was -34%. Turning to `CN1CCN(Cc2coc3c(Cl)cc(Cl)cc3c2=O)CC1.O=C(O)C(=O)O`, the “hERG current change (%, negative = inhibition) at 10uM” value was 3.47%.

In the case of `COCc1nnc(NC(=O)C2CC(=O)N(c3ccc(C)c(Cl)c3)C2)s1` (stereo not drawn), the “hERG current change (%, negative = inhibition) at 10uM” value is listed as -1.43%. With `O=C(CCC1CCCC1)NCCS(=O)(=O)N1CCN(c2ccccc2)CC1` the figure was -12.9%. Take `COc1ccc(OC)c(CNC(=O)CCNC(=O)Cn2ccc3ccccc3c2=O)c1`: the “hERG current change (%, negative = inhibition) at 10uM” value was -11.5%. For `O=C(CNC(=O)c1cccc(Br)c1)N/N=C/c1cccnc1` the value was -14%; for `O=C(COC(=O)c1cccc(NS(=O)(=O)/C=C/c2ccccc2)c1)Nc1ccccc1OC(F)F`, 6.3%.

Turning to `CC(C)C(=O)NC(NC(=O)C(C)C)c1ccc([N+](=O)[O-])cc1`, the “hERG current change (%, negative = inhibition) at 10uM” value was found to be 0.0956%. `CCn1c(=NC(=O)CSC(C)=O)sc2cc(OC)ccc21`: the “hERG current change (%, negative = inhibition) at 10uM” value is -17.2%. For `CCC(C)NC(=S)N1CCN(C(c2ccccc2)c2ccccc2)CC1` (stereo not drawn) the value was -59.6%; for `CCOC(=O)N1CCN(S(=O)(=O)c2ccc(C(=O)Nc3nnc(C4CC4)o3)cc2)CC1`, -30.4%; for `COc1ccccc1OCCCn1c(=O)sc2ccccc21`, -13.3%. With `CN1CCN(S(=O)(=O)c2ccc(Br)c3nsnc23)CC1` the figure was -6.26%; with `Cc1cc([N+](=O)[O-])ccc1NC(=O)c1sc2ncn(CC(=O)N3CCOCC3)c(=O)c2c1C`, -0.176%; with `Cc1ccc(-n2c(SCC(=O)Nc3cc(C)on3)nc3ccccc3c2=O)cc1`, 9.64%. For the molecule `CCc1nnc(NC(=O)CSc2nnc(CNc3cccc(C)c3)n2-c2ccccc2)s1`, the “hERG current change (%, negative = inhibition) at 10uM” value is on record as 3.35%. With `O=c1cc(Cl)[nH]c(=O)n1CCNc1ncc(C(F)(F)F)cc1Cl` the figure was -2.67%; with `CC(C)=CCN1CCN(Cc2c[nH]c3ccccc23)CC1CCO` (stereo not drawn), -1.98%. For `Fc1ccc(/C=N/Nc2nccnc2Cl)cc1` the value was 9.05%. `CC1=C(C(=O)OCCOc2ccccc2)C(c2ccc(C)o2)C2=C(CC(C)(C)CC2=O)N1` (stereo not drawn): the “hERG current change (%, negative = inhibition) at 10uM” value was -0.0235%.

Turning to `Cc1ccc2[nH]c(=O)c(CN(CCCN3CCOCC3)C(=O)Nc3ccc(Cl)cc3)cc2c1`, the “hERG current change (%, negative = inhibition) at 10uM” value is listed as -71.7%. On to `COc1ccc(NC(=O)CSc2nc(=O)n(CCN3CCOCC3)c3c2CCCC3)c(OC)c1`, for which the “hERG current change (%, negative = inhibition) at 10uM” value is given as -34.6%. For `COc1ccc(-c2cc(C(=O)N3CC4(C)CC3CC(C)(C)C4)no2)cc1OC` (stereo not drawn) the value was -20.1%. For the molecule `CCOc1ccc(NC(=O)CC(=O)Nc2ccc(OCC)cc2)cc1`, the “hERG current change (%, negative = inhibition) at 10uM” value came out at 18.4%.

For `Cc1ccc(-c2nc3ccccc3s2)cc1NC(=S)NC(=O)/C=C/c1ccco1`, the “hERG current change (%, negative = inhibition) at 10uM” value is given as -3.62%. Turning to `CCOc1ccc(-c2cn3ccccc3n2)cc1`, the “hERG current change (%, negative = inhibition) at 10uM” value amounted to 12.3%. Take `COC(=O)c1cn(CCOc2ccccc2F)c2ccccc12`: the “hERG current change (%, negative = inhibition) at 10uM” value is given as -3.48%.

In the case of `Cc1ccc(NC(=O)c2cccs2)cc1`, the “hERG current change (%, negative = inhibition) at 10uM” value is -11.7%. For the molecule `COc1ccc([C@H]2CC(=O)C=C(c3ccc(Oc4ccccc4)cc3)C2)cc1OC`, the “hERG current change (%, negative = inhibition) at 10uM” value came to 9.51%.

On to `Cc1cccc(SCC(=O)Nc2ccc3c(c2)OCCO3)c1`, for which the “hERG current change (%, negative = inhibition) at 10uM” value is given as -9.28%. With `COc1ccc(C(=O)C2CCCN(C(=O)c3cc(C)on3)C2)cc1F` (stereo not drawn) the figure was -6.98%; with `Cc1ccc(-n2c(/C=C/c3ccc4c(c3)OCO4)nc3ccccc3c2=O)cc1`, -50.4%; with `CC(C)S(=O)(=O)c1cnc(N2CCOCC2)nc1N`, 11.4%. Consider `COc1ccccc1-c1coc2c(CN(C)C)c(O)ccc2c1=O`, for which the “hERG current change (%, negative = inhibition) at 10uM” value was 8.09%. With `Cl.O=C(CN1CCN(Cc2ccccc2)CC1)N1CCCc2ccccc21.O=C(O)C(=O)O`, the “hERG current change (%, negative = inhibition) at 10uM” value was -13.5%. For `Fc1ccccc1/C=N/n1c(-c2cccnc2)n[nH]c1=S` the value was 18.5%. Turning to `Cc1cc(C)c(C#N)c(Oc2ccc(F)cc2)n1`, the “hERG current change (%, negative = inhibition) at 10uM” value was -2.14%. For the molecule `c1ccc(Oc2c3ccccc3nc3ccccc23)cc1`, the “hERG current change (%, negative = inhibition) at 10uM” value is 13.1%. For `Cc1ccc(NC(=O)c2ccc3snnc3c2)cc1C` the value was 14.8%; for `CCC(Sc1nc(-c2ccccc2)c(-c2ccccc2)[nH]1)C(=O)O` (stereo not drawn), 53.2%; for `CC1CCCC(NC(=O)Cn2cc(C(F)(F)F)cc(Cl)c2=O)C1C` (stereo not drawn), 15.6%.

Take `CC(=O)Nc1ccc(NS(=O)(=O)c2ccccc2)cc1`: the “hERG current change (%, negative = inhibition) at 10uM” value was 17.1%. With `O=C(CSc1nnc(NCc2ccccc2)s1)c1ccco1` the figure was -24.3%; with `COc1cccc(CC2(CO)CCN(Cc3cnc(N4CCOCC4)s3)CC2)c1`, -54.7%. With `CCN(c1ccccc1)S(=O)(=O)c1ccc(OC)c(N=N/C(C(=O)Nc2ccccc2)=C(/C)O)c1` the figure was -11.5%.

In the case of `Cc1cccc([C@@H]2[C@@H]3C(=O)N(Cc4ccccc4)C(=O)[C@@H]3[C@]3(Cc4ccc(Cl)cc4)C(=O)N(c4ccccc4)C(=O)N23)c1`, the “hERG current change (%, negative = inhibition) at 10uM” value was -25.3%. In the case of `O=C(CCS(=O)(=O)c1ccc(Cl)cc1)Nc1nnc(-c2cccs2)o1`, the “hERG current change (%, negative = inhibition) at 10uM” value was -1.53%. For `CCCCN(C(=O)CSc1nnnn1C)C1CCS(=O)(=O)C1` (stereo not drawn) the value was -28.1%; for `S=C1NCN(Cc2cccnc2)CN1c1cccc2ccccc12`, 5.57%; for `COc1ccc(C(=O)NCc2ccccc2)cc1Br`, 7.97%. For `OCc1nc2c(ccc3ccccc32)[nH]1` the value was 5.35%; for `CCc1nnc(NC(=O)CSc2nnc(COc3ccc(C#N)cc3)n2-c2ccccc2)s1`, 3.13%; for `Cc1cccc(-c2nnc(SCC(=O)c3ccc(O)cc3O)n2C)c1`, 14.4%. With `O=C(Nc1ncccn1)C1CCCCC1` the figure was 17%; with `Cc1ccc(NC(=O)CN(C)C(=O)CNC(=O)c2ccc3c(c2)OCO3)cc1`, 3.73%. For the molecule `COC(=O)C1=C(c2ccccc2OCc2ccccc2)C[C@@H]2CC[C@H]1N2C(=O)NCc1cccc(C(F)(F)F)c1`, the “hERG current change (%, negative = inhibition) at 10uM” value stood at 1.18%.

As for `Clc1ccc(SCCOCCN2CCCCCC2)cc1.O=C(O)C(=O)O`, the “hERG current change (%, negative = inhibition) at 10uM” value is -73.3%.

As to `CCOC(=O)C1CCCN(C(=O)c2cc3nc(-c4cccc(OC)c4)cc(C(F)(F)F)n3n2)C1` (stereo not drawn), the “hERG current change (%, negative = inhibition) at 10uM” value is on record as -25.3%. Turning to `COc1ccc(Br)cc1/C=N/NC(=O)c1ccc(COc2ccc3c(c2)CCC3)o1`, the “hERG current change (%, negative = inhibition) at 10uM” value stood at 21.9%.

As to `COc1cccc(CNc2ccc(S(N)(=O)=O)cc2)c1OC`, the “hERG current change (%, negative = inhibition) at 10uM” value is listed as -8.94%. For `Cc1ccc(S(=O)(=O)C2(C(=O)Nc3ccc(Br)cc3)CC2)cc1` the value was -7.69%; for `Br.CN(C)C1=NCC(CSC(=N)N)S1` (stereo not drawn), 36.9%. With `O=C(N/N=C/c1ccc[nH]1)c1ccccc1OCc1ccc(F)cc1` the figure was -0.33%.
